Reference: PubChem BioAssay AID1963576 (National Center for Advancing Translational Sciences (NCATS), 2024)
The whole screen tested about 46,000 compounds, of which about 60 (0.1%) were called active. Not shown: some 3% with an inconclusive outcome. The call rests on the fitted dose curve; in most records, active means well fitted inhibition curve with a large enough effect; inconclusive means small, poorly fitted or top-dose-only effect; inactive means no such curve, though single readings can be large or run the other way. The list shows a part of the results.

experiment: Primary qHTS assay for Inhibitors of ovarian cancer metastasis using an organotypic tumor microenvironment (TME) model.; further: nearly all actives have a fitted effect of over 65% in size;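 on activity change, negative = inhibition: plate controls were DMSO wells for no effect and tomatine positive control wells for full effect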; conditions: SKOV3ip1-GFP adhesion/invasion on 3D omental model, fluorescence; series mostly up to 45.8 µM; activity change, negative = inhibition: at the top concentration
Procedure, shortened: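 A 3D layer of primary human omental fibroblasts, mesothelial cells, fibronectin and collagen I, grown 48 hr, received SKOV3ip1-GFP cells in serum-free medium plus compounds at 0.36-46 umol/L. After 2 hr RT and 16 hr 37 C, fixed adherent GFP cells were counted; normalized to DMSO and tomatine.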

Activity change, negative = inhibition, inactive:
O=C(COC(=O)C(Cc1c[nH]c2ccccc12)NC(=O)c1ccc(Cl)cc1)c1ccc(Cl)cc1 (stereo not given) 4.74%
COc1ccccc1NC(=O)C1CCN(S(=O)(=O)c2ccc3[nH]c4c(c3c2)CCCCC4)CC1 -1.93%
Cc1cc(C)c(NC(=O)CCn2c(=O)c3cccn3c3ccccc32)c(C)c1 -4.56%
CCc1c(C)sc2c1CCN(C(=O)Nc1cc(C)cc(C)c1)C2c1ccccc1 (stereo not given) -1.63%
COc1cc(NC(=O)CCS(=O)(=O)c2nc(-c3ccc4c(c3)OCO4)cc(C(F)(F)F)n2)cc(OC)c1OC 2.11%
COC(=O)c1sc(N2C(=O)c3oc4ccccc4c(=O)c3C2c2ccc(O)cc2)nc1C (stereo not given) 1.69%
Cc1ccc(NC(=O)Cn2c(=O)n(CCCCC(=O)NCCc3ccc(Cl)cc3)c(=O)c3ccccc32)cc1 94%
COc1ccc(CCNC(=O)c2oc(=O)c3ccccc3c2-c2ccccc2)cc1OC -8.58%
Cc1nc(NC(=O)c2c(-c3ccccc3)c(-c3ccccc3)nn(C)c2=O)sc1C -13%
CCCCNC(=O)C1CCC(CNS(=O)(=O)c2ccc(C)cc2)CC1 (stereo not given) -3.12%
COCCCNC(=O)CSc1nc2cc3c(cc2c(=O)n1CCCCCC(=O)NCc1ccc2c(c1)OCO2)OCO3 -4.68%
CCc1ccc(S(=O)(=O)Nc2ccc3[nH]c(=O)sc3c2)cc1 -7.65%
Cc1cccc(NC(=O)c2sc3nc4c(cc3c2N)CN(C(C)C)CC4)c1 0.531%
CC1=C(C(=O)OC2CCCCCC2)C(c2cccc(F)c2F)CC(=O)N1 (stereo not given) -4.95%
CCC1CCCCN1C(=O)CSc1nc(-c2ccc(OC)c(OC)c2)cc(C(F)(F)F)n1 (stereo not given) -1.57%
Cc1nc2cc(C(=O)NC3CCCCCC3)ccc2n1-c1ccc(Br)cc1 4.04%
CC(=O)N1CCc2cc(Br)cc(S(=O)(=O)CCC(=O)N3CCN(c4ccccc4)CC3)c21 -1.54%
Cc1cc([N+](=O)[O-])ccc1NC(c1nnc(-c2ccccc2)o1)c1ccccc1F (stereo not given) -3.13%
Fc1ccc(Nc2nc(SCc3ccccc3F)nc3ccccc23)cc1 -9.37%
Cc1ccc(Cn2c(SCC(=O)NCc3ccccc3Cl)nc3ccsc3c2=O)cc1 -6.6%
COc1cc(NC(=O)CCCc2nnc3n(CC(C)C)c(=O)c4sccc4n23)cc(OC)c1 10.5%

outcome, inactive:
CCN1CCN(C(c2ccc(SC)cc2)c2c(O)cc(C)n(Cc3ccco3)c2=O)CC1 (stereo not given)
COc1ccc(CNC(=O)CN2C(=O)COc3ccc(S(=O)(=O)N4CCC(C)CC4)cc32)cc1
CCOC(=O)c1cc2c(=O)n3ccccc3nc2n(Cc2ccco2)c1=NC(=O)c1cccc(F)c1
CN(C)S(=O)(=O)c1ccc2c(c1)N(CC(=O)Nc1ccc(F)cc1)C(=O)CS2
